Some of the results follow.

The test system of this assay is S. aureus RN4220. Put plainly: growth inhibition call (relative growth <= 0.2). To be noted: 50 µM.
For the molecule `COc1ccc(CNC(=O)N(C)C[C@@H]2OCc3ccccc3-c3c(n(C)c4ccccc34)C(=O)N([C@@H](C)CO)C[C@@H]2C)cc1`, the growth inhibition call was “inactive”.
Next, `COc1ccc(CN(C)C[C@@H]2OCCCC[C@H](C)Oc3ccc(NS(=O)(=O)c4ccc(F)cc4)cc3C(=O)N([C@H](C)CO)C[C@H]2C)cc1`: “inactive”.
Next, `COc1ccc(NC(=O)Nc2ccc3c(c2)CC(=O)N([C@H](C)CO)C[C@H](C)[C@@H](CN(C)Cc2ccc(Oc4ccccc4)cc2)O3)cc1`: “inactive”.
Take `O=C(COc1ccc(S(=O)(=O)N2CCOCC2)cc1)NCCCn1ccnc1`: the growth inhibition call was “inactive”.
As to `CSC[C@H]1O[C@H](n2ccc3c(N)ncnc32)[C@@H](O)[C@H]1O`, the growth inhibition call is “inactive”.
For `C[C@@H]1CN([C@H](C)CO)C(=O)Cc2cc(NC(=O)CCCCCC(=O)Nc3ccccc3N)ccc2O[C@@H]1CN(C)C(=O)Nc1ccc(C(F)(F)F)cc1`, the growth inhibition call is “inactive”.
For the molecule `C[C@@H]1CN([C@@H](C)CO)C(=O)c2cc(NC(=O)Nc3ccc(C(F)(F)F)cc3)ccc2O[C@@H](C)CCCCO[C@H]1CN(C)Cc1ccc2c(c1)OCO2`, the growth inhibition call was “inactive”.
Take `CN1C(=O)c2cc(NC(=O)c3cnccn3)ccc2OC[C@H]2O[C@@H](CC(=O)NCC3CCCCC3)CC[C@H]21`: the growth inhibition call was “inactive”.
Next, `COc1ccc(S(=O)(=O)N(C)C[C@@H]2OCCCC[C@H](C)Oc3ccc(NC(=O)Nc4ccccc4)cc3C(=O)N([C@H](C)CO)C[C@H]2C)cc1`: “inactive”.
Next, `CC(C)NC(=O)N1Cc2cc(C(=O)NC3CCCCC3)nc(-c3cccc(-c4cccnc4)c3)c2[C@H]1CCO`: “inactive”.
Next, `Cc1noc(C)c1NC(=O)N(C)C[C@@H]1Oc2ccc(NC(=O)c3ccncc3)cc2CC(=O)N([C@@H](C)CO)C[C@H]1C`: “inactive”.
Take `O=C(O)CSc1ncnc2nc[nH]c12`: the growth inhibition call was “inactive”.
For the molecule `C[C@H]1CN([C@@H](C)CO)S(=O)(=O)c2ccc(C#Cc3ccc(F)cc3)cc2O[C@H]1CN(C)S(=O)(=O)c1ccc(F)cc1`, the growth inhibition call is “inactive”.
In the case of `C[C@@H]1CC[C@H](C)N1c1cc(C(F)(F)F)cc(C(F)(F)F)c1`, the growth inhibition call was “inactive”.
Consider `C[C@@H](OCc1ccccc1)[C@H]1NC(=O)[C@@]23C(=O)N[C@@H](Cc4ccccc4)[C@H]2[C@H](C)[C@@]2(C)O[C@H]2[C@@H]3/C=C/C/C=C\CNC(=O)CNC1=O`, for which the growth inhibition call is “inactive”.
Next, `O=C(CN1CCOCC1)NCC[C@H]1CC[C@H](NS(=O)(=O)c2ccc(Cl)cc2)[C@H](CO)O1`: “inactive”; `COc1ccc(CCN(C)CCCOc2ccc(S(=O)(=O)c3[nH]c4ccccc4c3C(C)C)cc2)cc1OC`: “inactive”; `O=C(CCCCCCC(=O)Nc1ccccc1O)N/N=C/c1cc(Br)c(O)c(Br)c1`: “inactive”.
`C[N+](C)(C)CCCC[C@@H]1NC(=O)[C@H]2C[C@@H](C(=O)NCCCCCCNC(=O)CS)[C@@H](c3ccc(O)cc3)N2C1=O`: the growth inhibition call is “inactive”.
As to `CO[C@H]1CN(C)C(=O)c2cc(NS(C)(=O)=O)ccc2OC[C@@H](C)N(C(=O)C2CCOCC2)C[C@H]1C`, the growth inhibition call was “inactive”.
Next, `C[C@@H]1CN([C@H](C)CO)C(=O)Cc2cc(NC(=O)Nc3ccc(F)cc3)ccc2O[C@@H]1CN(C)C(=O)Nc1ccc(C(F)(F)F)cc1`: “inactive”.
Next, `C[C@H](CO)N1C[C@H](C)[C@H](CN(C)C(=O)Nc2ccccc2)Oc2ccc(NS(C)(=O)=O)cc2CC1=O`: “inactive”; `C=CC[C@H](CC(=O)N(CCO)Cc1ccccc1)C(=O)N[C@H](COC(=O)[C@@H](CC=C)Cc1ccc(F)cc1)C(C)(C)C`: “inactive”.
On to `C[C@@H]1COCS(=O)(=O)N1`, for which the growth inhibition call is “inactive”.
As to `C[C@@H]1CN([C@@H](C)CO)C(=O)c2cccc(NC(=O)Nc3ccccc3)c2O[C@H]1CN(C)S(C)(=O)=O`, the growth inhibition call is “inactive”.
Next, `O=C(/C=C/c1ccc(O)c(O)c1)O[C@H]1[C@H](O)C[C@](OC(=O)/C=C/c2ccc(O)c(O)c2)(C(=O)O)C[C@H]1O`: “inactive”; `Cc1noc(C)c1S(=O)(=O)Nc1cccc2c1O[C@H](CN(C)Cc1ccncc1)[C@H](C)CN([C@@H](C)CO)C2=O`: “inactive”.
Next, `COc1ccc(S(=O)(=O)Nc2ccc3c(c2)C(=O)N([C@@H](C)CO)C[C@@H](C)[C@H](CN(C)S(=O)(=O)c2ccc(Cl)cc2)OCCCC[C@@H](C)O3)cc1`: “inactive”; `C[C@H](CO)N1C[C@H](C)[C@@H](CN(C)C(=O)Nc2ccc(C(F)(F)F)cc2)Oc2ccc(NC(=O)Cc3ccccc3)cc2CC1=O`: “inactive”.
Next, `CC(C)=CCC1=C(O)C(=O)c2ccccc2C1=O`: “inactive”.
For `CCCC12CN3CC(CCC)(CN(C1)C3[C@@H](O)[C@@H](O)[C@@H](O)CO)C2=O` (stereo not given in full), the growth inhibition call was “inactive”.
Next, `Cc1ccc(S[C@]2(C(=O)NCC(C)C)CC(=O)N(Cc3cc(C(F)(F)F)cc(C(F)(F)F)c3)[C@@H]2c2ccc(CO)cc2)cc1`: “inactive”; `COc1ccc2c3c(n(c2c1)C)[C@@H](CO)N(C[C@]13CN(C1)C(=O)C1CCOCC1)C(=O)C1CCOCC1`: “inactive”.
As for `Cc1ccc(S(=O)(=O)Nc2ccc3c(c2)C(=O)N([C@H](C)CO)C[C@H](C)[C@H](CN(C)Cc2ccc4c(c2)OCO4)OCCCC[C@H](C)O3)cc1`, the growth inhibition call was “inactive”.
With `OCCN1CCN(c2ncnc3c2ncn3[C@H]2CN(Cc3cccnc3)C[C@@H](CO)O2)CC1`, the growth inhibition call was “inactive”.
As to `C[C@H]1CN([C@@H](C)CO)C(=O)Cc2cc(NC(=O)CCC(F)(F)F)ccc2O[C@@H]1CN(C)Cc1ccc(Cl)c(Cl)c1`, the growth inhibition call was “inactive”.
Next, `C[C@H]1CCc2c(C(=O)O)csc2C1`: “inactive”; `C=CC[C@@H](CC(=O)N(CCO)Cc1ccccc1)C(=O)N[C@@H](COC(=O)[C@@H](CC=C)Cc1ccc(F)cc1)Cc1c[nH]c2ccccc12`: “inactive”; `CC(C)NC(=O)N[C@@H]1C=C[C@@H](CC(=O)NCCCN(C)C)O[C@H]1CO`: “inactive”.
Consider `COc1ccc(S(=O)(=O)Nc2ccc3c(c2)C(=O)N([C@H](C)CO)C[C@H](C)[C@H](CN(C)S(C)(=O)=O)O3)cc1`, for which the growth inhibition call is “inactive”.

Source of the values: the antibiotic and cytotoxicity screens of Wong et al. (2023).
